Measured values published in PubChem BioAssay AID504333 (National Center for Advancing Translational Sciences (NCATS), 2011).
Several values for one entry are separate records, joined by “and”; a condition that tells them apart may be missing. Equal entries are not always repeated. About 16,000 (4.4%) of roughly 360,000 compounds were called active. Inconclusive results, whose numbers are uncertain, are shown with a selection of clear calls. The call rests on the fitted dose curve; in most records, active means well fitted inhibition curve with a large enough effect; inconclusive means small, poorly fitted or top-dose-only effect; inactive means no such curve, though single readings can be large or run the other way. Where the call is inconclusive, the potency comes from a doubtful curve fit.

biological target: Bromodomain adjacent to zinc finger domain protein 2B (Homo sapiens) (UniProt Q9UIF8); assay: qHTS Assay for Inhibitors of BAZ2B; conditions: AlphaScreen BAZ2B-H3K14Ac peptide displacement; series mostly up to 114 µM; further: nearly all actives have a fitted effect of over 60% in size
In short: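 Complex of BAZ2B and biotin-H3K14Ac (50 nM apiece) forms over 30 min at RT, then faces library compounds up to 110 uM for another 30 min; AlphaScreen beads added, 20 min dark incubation, luminescence read.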
Potency means the concentration at half of the fitted maximal effect; tags describe the fitted curve by direction and shape.

Sequence of UniProt Q9UIF8 (Q9UIF8 whole entry, looked up, the tested form may be a part): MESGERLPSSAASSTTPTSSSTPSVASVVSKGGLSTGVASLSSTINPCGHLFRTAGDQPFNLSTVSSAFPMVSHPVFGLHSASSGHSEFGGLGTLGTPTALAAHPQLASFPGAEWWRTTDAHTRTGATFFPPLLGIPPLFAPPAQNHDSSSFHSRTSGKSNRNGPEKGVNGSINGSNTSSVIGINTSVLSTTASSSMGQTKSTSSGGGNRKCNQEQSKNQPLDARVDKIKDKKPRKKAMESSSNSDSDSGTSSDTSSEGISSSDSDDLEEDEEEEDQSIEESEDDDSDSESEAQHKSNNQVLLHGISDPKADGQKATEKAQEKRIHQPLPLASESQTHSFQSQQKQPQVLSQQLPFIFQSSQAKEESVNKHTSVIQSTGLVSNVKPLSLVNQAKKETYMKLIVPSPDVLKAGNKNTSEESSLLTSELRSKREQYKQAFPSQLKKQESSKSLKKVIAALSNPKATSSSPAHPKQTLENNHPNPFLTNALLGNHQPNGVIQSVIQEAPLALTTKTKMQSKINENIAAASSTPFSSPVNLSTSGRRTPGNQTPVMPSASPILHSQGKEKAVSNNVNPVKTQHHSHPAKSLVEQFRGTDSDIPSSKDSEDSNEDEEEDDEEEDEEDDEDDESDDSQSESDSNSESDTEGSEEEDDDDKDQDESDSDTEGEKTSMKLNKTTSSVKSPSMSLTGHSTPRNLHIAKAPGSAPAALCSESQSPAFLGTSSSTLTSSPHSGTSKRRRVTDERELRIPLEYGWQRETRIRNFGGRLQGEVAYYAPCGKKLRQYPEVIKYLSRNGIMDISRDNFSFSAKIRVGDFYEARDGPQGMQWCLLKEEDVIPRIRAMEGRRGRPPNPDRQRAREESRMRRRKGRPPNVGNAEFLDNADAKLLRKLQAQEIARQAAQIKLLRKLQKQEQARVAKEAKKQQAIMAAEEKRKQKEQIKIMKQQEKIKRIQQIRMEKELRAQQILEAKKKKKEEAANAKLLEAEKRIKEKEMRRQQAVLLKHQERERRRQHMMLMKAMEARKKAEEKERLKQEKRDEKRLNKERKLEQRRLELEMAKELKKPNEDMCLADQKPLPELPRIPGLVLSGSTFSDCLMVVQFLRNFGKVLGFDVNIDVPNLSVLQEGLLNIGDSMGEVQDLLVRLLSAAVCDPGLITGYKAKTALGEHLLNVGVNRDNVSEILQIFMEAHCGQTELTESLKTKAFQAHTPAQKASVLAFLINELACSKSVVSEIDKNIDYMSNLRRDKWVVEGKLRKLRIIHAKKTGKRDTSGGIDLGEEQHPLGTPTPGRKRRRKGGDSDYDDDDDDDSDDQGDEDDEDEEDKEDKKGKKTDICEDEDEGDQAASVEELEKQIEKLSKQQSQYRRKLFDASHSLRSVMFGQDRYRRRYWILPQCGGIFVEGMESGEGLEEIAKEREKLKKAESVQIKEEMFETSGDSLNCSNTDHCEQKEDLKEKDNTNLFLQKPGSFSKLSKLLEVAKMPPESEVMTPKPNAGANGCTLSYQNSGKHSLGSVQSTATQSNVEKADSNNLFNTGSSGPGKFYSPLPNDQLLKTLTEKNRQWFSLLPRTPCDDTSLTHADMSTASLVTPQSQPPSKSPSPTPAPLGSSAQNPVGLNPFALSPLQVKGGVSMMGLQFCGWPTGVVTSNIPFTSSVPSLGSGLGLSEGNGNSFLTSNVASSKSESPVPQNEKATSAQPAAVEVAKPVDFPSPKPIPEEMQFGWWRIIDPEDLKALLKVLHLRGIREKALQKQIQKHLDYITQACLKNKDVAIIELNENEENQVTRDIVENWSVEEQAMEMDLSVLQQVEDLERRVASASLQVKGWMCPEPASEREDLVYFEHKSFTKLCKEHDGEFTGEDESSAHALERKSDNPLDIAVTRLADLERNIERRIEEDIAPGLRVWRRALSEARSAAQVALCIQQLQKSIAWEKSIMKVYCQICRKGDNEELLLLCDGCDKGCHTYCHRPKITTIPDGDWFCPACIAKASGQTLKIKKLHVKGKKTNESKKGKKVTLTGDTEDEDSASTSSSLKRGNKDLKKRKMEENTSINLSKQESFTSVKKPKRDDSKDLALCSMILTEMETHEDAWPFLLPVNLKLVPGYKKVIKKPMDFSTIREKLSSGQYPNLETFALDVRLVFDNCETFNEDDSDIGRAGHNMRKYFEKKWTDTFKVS

SMILES | Potency
O=C(c1ccc(Br)s1)N1CCN(C/C=C/c2ccccc2)CC1 | inconclusive: 79.4 µM [inhibitor, single point]
Cc1ccc(CNc2ccc(CNc3ncn[nH]3)cc2)cc1 | inconclusive: 70.8 µM [inhibitor, single point]
Oc1ccc(N=Nc2nc(-c3ccccc3)c(-c3ccccc3)[nH]2)cc1 | active: 11.2 µM
CCOC(=O)c1[nH]c2ccccc2c1NC(=O)NC(C)C | inactive
CSc1ccc(/C=N/n2c(COc3ccccc3)n[nH]c2=S)cc1 | inconclusive: 25.1 µM [inhibitor, full curve]
COc1ccc2c(c1)oc(=O)c1c3ccccc3[nH]c21 | inactive
C#CCOC(=O)Nc1cccn(Cc2c(Cl)cccc2Cl)c1=O | inactive
CC(=O)c1cccc(-n2c(CCC(=O)O)ccc2-c2cccs2)c1 | active: 50.1 µM
COc1ccc(CN2CCCC(C(=O)N(C)Cc3ccccc3)C2)cc1OC (configuration not stated) | inconclusive: 89.1 µM [inhibitor, single point]
COCCn1nnnc1C(CC(C)C)N1CCN(c2cccc(OC)c2)CC1 (configuration not stated) | inconclusive: 89.1 µM [inhibitor, single point]
CCCn1c(C(C)Nc2nc(-c3cc(Cl)c(N)c(Cl)c3)cs2)nc2cc(Cl)c(N3CCCCC3)cc21 (configuration not stated) | inconclusive: 35.5 µM [inhibitor, partial curve]
COc1cc(/C=N/NC(=O)c2cccnc2)ccc1OC(=O)c1ccc([N+](=O)[O-])cc1 | inconclusive: 79.4 µM [inhibitor, single point]
COc1cccc(NC(=O)Cn2c(=O)n(-c3ccc(CC(=O)NCC4CCCO4)cc3)c(=O)c3ccccc32)c1 (configuration not stated) | inactive
CCCOC(=O)CC1C(=O)NCCN1C(=O)OC(C)(C)C (configuration not stated) | inactive
NC(=O)c1ccc(NCCc2ccccc2)c([N+](=O)[O-])c1 | inconclusive: 50.1 µM [inhibitor, partial curve]
CC(NC(=O)COc1ccc(/C=N/NC(=O)C(=O)Nc2ccccc2Br)cc1)c1ccccc1 (configuration not stated) | inconclusive: 89.1 µM [inhibitor, single point]
O=C1CCCC(O)=C1N=Nc1ccc2c(c1)OCO2 | inconclusive: 70.8 µM [inhibitor, single point]
Cc1ccc2cc3cc(C(=O)N4CCN(C(=O)c5ccco5)CC4)sc3nc2c1 | inconclusive: 89.1 µM [inhibitor, single point]
CC(C)(C)C1CCC(=NNC(=O)C(=O)NCc2ccco2)CC1 (configuration not stated) | inconclusive: 89.1 µM [inhibitor, single point]
COc1cc(Cn2c(-c3ccc(O)c(OC)c3)nc3ccccc32)ccc1O | inconclusive: 79.4 µM [inhibitor, partial curve]
Cc1cccc(Cn2c(CN3CCC(C(=O)NCCc4ccccc4)CC3)cc3ccccc32)c1 | inactive
CCN(c1cccc(C)c1)S(=O)(=O)c1nnc(NC(=O)c2cccs2)s1 | active: 3.55 µM
CCCc1c(C(=O)N/N=C/c2cccnc2)nnn1-c1nonc1N | inconclusive: 89.1 µM [inhibitor, single point]
CCCCn1c(-c2ccc(S(=O)(=O)N3CCOCC3)cc2)csc1=Nc1ccccc1 | inconclusive: 8.91 µM [inhibitor, full curve]

SMILES | Potency
CC(C)Oc1ccc(C(=O)/C(=C\c2cccs2)c2nc3ccccc3o2)cc1 | inconclusive: 79.4 µM [inhibitor, partial curve]
COc1cccc(/C=C2/Sc3ccc(C(=O)NCCN4CCCC4)cc3NC2=O)c1 | inconclusive: 39.8 µM [inhibitor, partial curve]
Cc1[nH]c(C)c(S(=O)(=O)NCc2ccco2)c1C(=O)N1CCCCC1 | inactive
Cc1sc2ncn(CC(=O)Nc3cccc(C(F)(F)F)c3)c(=O)c2c1S(=O)(=O)N1CCC(C)CC1 | inactive
O=C(Nc1ccccc1C(=O)OCc1cc(=O)n2nc(C3CC3)sc2n1)c1cccc(Cl)c1 | inactive
COc1ccccc1NC(=O)N1CCCC1C(=O)NCCc1ccccc1 (configuration not stated) | inconclusive: 89.1 µM [inhibitor, single point]
O=C(/C=C/c1cn(CC(O)CN2CCCCCC2)c2ccccc12)c1ccccc1 (configuration not stated) | inconclusive: 39.8 µM [inhibitor, partial curve]
O=C(O)Cn1c(P(=O)(O)c2ccccc2)nc2ccccc21 | inconclusive: 89.1 µM [inhibitor, single point]
CC(C)Oc1ccc(C(=O)Nc2ccccc2N2CCCC2)cc1 | inconclusive: 79.4 µM [inhibitor, single point]
Cc1ccc(-c2csc(C3=C(O)CN(NC(=O)c4ccc([N+](=O)[O-])cc4)C3=N)n2)cc1 | inactive
Cc1ccsc1C(=O)N1CCN(S(=O)(=O)c2cccs2)CC1 | inactive
COc1cc(/C=C/c2nc(C#N)c(NC3CCCCC3)o2)cc(OC)c1OC | inconclusive: 79.4 µM [inhibitor, single point]
CCc1ccc(C(=O)N2CCN(c3ccc(NC(=O)c4cccnc4)cc3)CC2)cc1 | inconclusive: 70.8 µM [inhibitor, single point]
COc1ccccc1N1C(=O)CC(Nc2ccc(N3CCOCC3)cc2)C1=O (configuration not stated) | inconclusive: 79.4 µM [inhibitor, single point]
Cc1ccc(OCc2n[nH]c(=S)n2-c2ccc(Br)cc2)cc1 | inactive
CCOc1cc(S(=O)(=O)n2ccnc2)ccc1Cl | active: 79.4 µM
COc1ccc(NS(=O)(=O)c2nnc(NC(=O)c3ccccc3F)s2)cc1 | inconclusive: 2.82 µM [inhibitor, full curve, poor fit]
CC(C)Oc1ccc(C2c3c(oc4ccccc4c3=O)C(=O)N2CCCN2CCOCC2)cc1 (configuration not stated) | inconclusive: 89.1 µM [inhibitor, single point]
Fc1ccc(NC(=S)NN=C2CCCCCC2)cc1 | inconclusive: 39.8 µM [inhibitor, partial curve]
COC(=O)C1CCN(C(=O)CCC2CCCCC2)CC1 | inactive
CC(C)n1cnc2cc(NCc3ccco3)ccc21 | inactive
C=CCn1c(=O)/c(=C2/Sc3ccccc3N2CC)s/c1=C1/C(=O)NN=C1C | inconclusive: 79.4 µM [inhibitor, single point]
CC1(C)CC(=O)C(N=Nc2c(Cl)cc(Cl)cc2Cl)=C(O)C1 | inconclusive: 39.8 µM [inhibitor, partial curve]
Cc1nnc(N/N=C/c2c(Cl)cccc2Cl)n1N | active: 50.1 µM

SMILES | Potency
CSc1ccc(CNC(=O)CCn2ccc3cc(S(=O)(=O)N4CCCC4)ccc32)cc1 | inconclusive: 89.1 µM [inhibitor, single point] and inconclusive: 31.6 µM [inhibitor, full curve]
CCC(C)n1ncn(-c2ccc(N3CCN(c4ccc(O)cc4)CC3)cc2)c1=O (configuration not stated) | inactive
Cc1[nH]c(-c2ccc(F)cc2)cc1C(=O)N1CCN(c2ccccc2)CC1 | inconclusive: 50.1 µM [inhibitor, partial curve]
Cc1ccc(C)c(S(=O)(=O)N2CCCCC2CCNC(=O)C(=O)NCc2ccco2)c1 (configuration not stated) | inconclusive: 56.2 µM [inhibitor, partial curve]
COc1ccc(CCNC(=O)COC(=O)c2ccc(N3CCCC3=O)cc2)cc1OC | inactive
COc1ccc(/C=C2\C(=O)c3ccccc3OC2c2ccccc2)cc1 (configuration not stated) | inconclusive: 70.8 µM [inhibitor, single point]
CC(C)CC(=O)NC(=S)Nc1nc(-c2cccc3ccccc23)cs1 | inconclusive: 79.4 µM [inhibitor, single point]
CCOc1ccc(NC(=O)Cc2csc(COc3cccc(C)c3)n2)cc1 | inactive
CCCCN1CCc2c1nc1ccc(Br)cc1c2N | inactive
COc1ccc(C)cc1NC(=O)CN1CCN(c2ccccn2)CC1 | inactive
CCOC(=O)c1cc(-c2ccccc2)n(CCC(=O)N2CCN(c3ccc(OC)cc3)CC2)c1C | active: 25.1 µM
CCCc1c(O)nc(SCC(=O)O)[nH]c1=O | inactive
O=C(NC1CCCc2ccccc21)c1ccccc1Cl (configuration not stated) | inactive
COc1ccccc1-c1nc(C#N)c(N2CC(C)CC(C)C2)o1 (configuration not stated) | inconclusive: 6.31 µM [inhibitor, full curve]
CC(C)NC(=O)c1onc(CSc2ccc(F)cc2)c1C(=O)O | inconclusive: 79.4 µM [inhibitor, single point]
O=C(CSc1nnc(-c2cccnc2)n1Cc1ccco1)c1ccccc1 | inactive
COCc1cc(=O)[nH]c(Nc2nc3ccc(C)cc3o2)n1 | inconclusive: 89.1 µM [inhibitor, single point]
CCc1nnc(NC(=O)c2nc(S(=O)(=O)Cc3ccccc3)ncc2Cl)s1 | inconclusive: 50.1 µM [inhibitor, partial curve]
CCN1C(=O)/C(=C\c2ccc(-c3ccc([N+](=O)[O-])cc3OC)o2)SC1=Nc1cccc(C(=O)O)c1 | active: 50.1 µM
CN1c2ccsc2C(O)=C(C(=S)Nc2ccc(F)c(Cl)c2)S1(=O)=O | inconclusive: 50.1 µM [inhibitor, partial curve]
COc1ccc(-n2cc(CNCCc3cnc[nH]3)c(-c3cccc(F)c3)n2)cc1 | active: 50.1 µM
CC(=O)c1c(C)[n+]([O-])c2ccc3c(non3O)c12 | inconclusive: 79.4 µM [inhibitor, single point]
COc1cccc(C(=O)C2=NN(C(C)=O)CC2c2ccco2)c1 (configuration not stated) | inconclusive: 35.5 µM [inhibitor, partial curve]
C=CCn1c(C)cc(C(=O)CSc2nnc(NCc3ccccc3)s2)c1C | inconclusive: 50.1 µM [inhibitor, partial curve]
